8 molecules from PMC4751363 can be followed below.

Protein sequences, listed by entry. Tags and fused reporters are not part of them. Lines headed by an entry give the natural chain unless they say otherwise; changes in a name come on top. Residues count along the entry.
UniProt F7BWT7: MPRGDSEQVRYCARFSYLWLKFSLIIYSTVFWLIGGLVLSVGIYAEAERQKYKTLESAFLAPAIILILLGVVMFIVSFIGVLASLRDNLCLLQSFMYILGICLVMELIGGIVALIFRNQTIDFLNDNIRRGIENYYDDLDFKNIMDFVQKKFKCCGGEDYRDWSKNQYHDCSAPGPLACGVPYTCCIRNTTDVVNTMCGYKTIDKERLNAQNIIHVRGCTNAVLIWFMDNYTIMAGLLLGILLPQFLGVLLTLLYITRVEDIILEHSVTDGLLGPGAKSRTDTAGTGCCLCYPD
UniProt O35598, residues 215-749: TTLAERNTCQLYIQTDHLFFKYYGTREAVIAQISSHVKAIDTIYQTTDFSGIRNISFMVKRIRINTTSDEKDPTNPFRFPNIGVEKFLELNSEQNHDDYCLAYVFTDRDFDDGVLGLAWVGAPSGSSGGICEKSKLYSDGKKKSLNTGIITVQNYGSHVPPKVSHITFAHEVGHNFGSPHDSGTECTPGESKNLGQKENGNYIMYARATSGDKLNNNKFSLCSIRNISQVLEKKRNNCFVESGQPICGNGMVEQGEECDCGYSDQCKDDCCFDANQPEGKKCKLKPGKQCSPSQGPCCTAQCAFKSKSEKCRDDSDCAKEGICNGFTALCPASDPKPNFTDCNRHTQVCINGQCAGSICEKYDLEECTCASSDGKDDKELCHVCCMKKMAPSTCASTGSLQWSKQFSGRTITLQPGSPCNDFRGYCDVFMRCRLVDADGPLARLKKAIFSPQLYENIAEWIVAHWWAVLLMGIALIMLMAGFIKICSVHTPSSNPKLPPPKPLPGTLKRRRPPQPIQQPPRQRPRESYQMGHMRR
UniProt Q9Z0F8: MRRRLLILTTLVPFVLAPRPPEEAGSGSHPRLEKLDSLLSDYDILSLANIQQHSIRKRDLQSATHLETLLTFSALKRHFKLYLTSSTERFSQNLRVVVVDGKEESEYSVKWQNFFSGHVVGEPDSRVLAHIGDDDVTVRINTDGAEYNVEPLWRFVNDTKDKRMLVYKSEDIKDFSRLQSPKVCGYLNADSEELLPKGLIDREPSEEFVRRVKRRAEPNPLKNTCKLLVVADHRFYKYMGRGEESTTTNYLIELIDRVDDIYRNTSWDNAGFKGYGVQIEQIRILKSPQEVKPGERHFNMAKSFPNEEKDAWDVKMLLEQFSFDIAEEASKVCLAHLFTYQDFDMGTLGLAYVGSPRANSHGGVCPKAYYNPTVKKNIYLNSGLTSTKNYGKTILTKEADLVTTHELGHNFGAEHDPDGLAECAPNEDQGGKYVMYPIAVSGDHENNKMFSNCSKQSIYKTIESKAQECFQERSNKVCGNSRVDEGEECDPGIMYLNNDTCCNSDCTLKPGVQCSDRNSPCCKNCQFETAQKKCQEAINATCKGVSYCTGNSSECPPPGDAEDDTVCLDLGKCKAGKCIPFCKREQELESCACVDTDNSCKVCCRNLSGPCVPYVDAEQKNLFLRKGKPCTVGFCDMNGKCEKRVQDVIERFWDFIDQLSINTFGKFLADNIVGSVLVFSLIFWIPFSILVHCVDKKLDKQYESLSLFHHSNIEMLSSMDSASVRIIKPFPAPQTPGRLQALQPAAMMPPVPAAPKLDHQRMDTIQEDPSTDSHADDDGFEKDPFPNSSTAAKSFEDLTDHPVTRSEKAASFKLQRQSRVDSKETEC
UniProt Q8NG11: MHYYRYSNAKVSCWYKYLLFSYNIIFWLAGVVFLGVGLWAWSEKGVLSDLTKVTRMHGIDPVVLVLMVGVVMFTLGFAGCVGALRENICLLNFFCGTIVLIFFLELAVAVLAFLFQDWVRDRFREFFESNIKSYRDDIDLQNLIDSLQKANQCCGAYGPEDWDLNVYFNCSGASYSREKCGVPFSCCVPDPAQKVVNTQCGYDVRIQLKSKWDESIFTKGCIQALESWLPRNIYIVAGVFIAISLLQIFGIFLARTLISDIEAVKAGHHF

Experiment [1] has as its target T1, FLAG-tagged mouse Tspan14 (mouse) (UniProt Q8QZY6).
T1 sequence: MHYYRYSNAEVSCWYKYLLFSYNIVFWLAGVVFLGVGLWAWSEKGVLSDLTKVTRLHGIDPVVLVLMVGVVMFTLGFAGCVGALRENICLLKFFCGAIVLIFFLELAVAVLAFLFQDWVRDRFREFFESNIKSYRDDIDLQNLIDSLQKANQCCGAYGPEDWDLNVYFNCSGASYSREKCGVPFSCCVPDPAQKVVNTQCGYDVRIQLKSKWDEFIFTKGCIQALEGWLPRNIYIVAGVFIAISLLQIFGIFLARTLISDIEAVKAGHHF
The experiment in a line: co-IP; HEK-293T co-transfected with FLAG-tagged mouse TspanC8s and HA-tagged mouse ADAM10/ADAM17 constructs or pDisplay human ADAM10 truncations; 1% digitonin lysis; anti-FLAG immunoprecipitation; anti-HA blot.

For experiment [2], the target named is T2, FLAG-tagged mouse Tspan10 (mouse) (UniProt Q8VCF5).
T2 sequence: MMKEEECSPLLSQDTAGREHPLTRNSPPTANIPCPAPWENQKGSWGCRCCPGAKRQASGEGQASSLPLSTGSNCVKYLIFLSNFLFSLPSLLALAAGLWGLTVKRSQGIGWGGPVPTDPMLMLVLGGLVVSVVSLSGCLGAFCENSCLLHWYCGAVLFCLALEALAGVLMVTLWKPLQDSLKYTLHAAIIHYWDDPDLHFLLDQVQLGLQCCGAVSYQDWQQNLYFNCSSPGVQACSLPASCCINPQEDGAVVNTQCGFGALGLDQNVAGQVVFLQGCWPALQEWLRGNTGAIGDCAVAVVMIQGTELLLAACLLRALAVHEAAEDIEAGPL
Described as above.

Experiment [3] deals with FLAG-tagged mouse Tspan15 (mouse) (UniProt F7BWT7). The experiment is described as above.
The target in experiment [4] is T3, FLAG-tagged mouse Tspan17 (mouse) (UniProt Q9D7W4).
T3 sequence: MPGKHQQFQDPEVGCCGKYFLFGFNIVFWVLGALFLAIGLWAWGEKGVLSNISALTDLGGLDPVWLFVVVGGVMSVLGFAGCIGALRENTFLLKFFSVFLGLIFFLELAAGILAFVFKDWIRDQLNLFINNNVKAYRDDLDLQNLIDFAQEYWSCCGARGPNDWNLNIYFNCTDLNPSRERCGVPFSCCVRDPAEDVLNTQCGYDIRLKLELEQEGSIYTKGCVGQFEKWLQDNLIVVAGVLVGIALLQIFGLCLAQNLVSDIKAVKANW
The experiment is described as above.

The target in experiment [5] is T4, FLAG-tagged mouse Tspan33 (mouse) (UniProt Q8R3S2).
T4 sequence: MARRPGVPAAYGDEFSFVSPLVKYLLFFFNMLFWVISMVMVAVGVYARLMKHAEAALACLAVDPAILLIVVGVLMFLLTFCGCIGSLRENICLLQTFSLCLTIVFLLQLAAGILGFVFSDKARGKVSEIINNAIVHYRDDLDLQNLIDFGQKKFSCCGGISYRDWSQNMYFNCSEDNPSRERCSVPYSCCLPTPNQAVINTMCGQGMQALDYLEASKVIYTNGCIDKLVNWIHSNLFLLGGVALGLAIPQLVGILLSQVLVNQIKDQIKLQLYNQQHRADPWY
The description is as above.

Experiment [6] deals with T5, FLAG-tagged mouse Tspan5 (mouse) (UniProt P62080).
T5 sequence: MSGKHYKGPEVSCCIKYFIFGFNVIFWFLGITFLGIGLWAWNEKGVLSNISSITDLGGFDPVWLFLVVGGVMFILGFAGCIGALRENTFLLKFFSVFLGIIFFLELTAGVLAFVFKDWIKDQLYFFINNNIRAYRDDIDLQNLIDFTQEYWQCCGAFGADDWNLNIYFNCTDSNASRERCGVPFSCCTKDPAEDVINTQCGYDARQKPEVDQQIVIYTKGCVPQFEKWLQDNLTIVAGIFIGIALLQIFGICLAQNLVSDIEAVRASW
The description is as above.

In experiment [7] the target is T6, A disintegrin and metalloprotease 10 (ADAM10), endogenous human (human (endogenous in platelets and HUVECs)), O14672.
T6 chain: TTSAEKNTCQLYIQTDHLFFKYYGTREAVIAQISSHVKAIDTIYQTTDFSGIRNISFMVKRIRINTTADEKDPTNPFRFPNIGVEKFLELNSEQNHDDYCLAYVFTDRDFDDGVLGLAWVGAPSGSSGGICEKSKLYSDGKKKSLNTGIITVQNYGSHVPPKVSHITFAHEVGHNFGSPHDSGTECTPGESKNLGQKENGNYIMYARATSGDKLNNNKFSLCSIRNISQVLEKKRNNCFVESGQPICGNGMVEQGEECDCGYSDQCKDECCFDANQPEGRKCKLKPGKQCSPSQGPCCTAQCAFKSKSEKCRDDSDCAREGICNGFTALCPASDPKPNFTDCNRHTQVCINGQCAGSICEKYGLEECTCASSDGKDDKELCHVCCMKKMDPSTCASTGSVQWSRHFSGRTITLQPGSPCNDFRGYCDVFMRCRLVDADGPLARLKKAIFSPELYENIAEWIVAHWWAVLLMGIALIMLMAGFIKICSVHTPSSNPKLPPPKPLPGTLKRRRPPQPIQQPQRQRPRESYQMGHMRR
The experiment in a line: co-IP; HUVECs (2.2 x 10^6 per immunoprecipitation) lysed in 1% digitonin lysis buffer; anti-ADAM10 or isotype-matched control on protein G-Sepharose; non-reducing gels, blots for Tspan14, ADAM10, CD9. As to conditions: remark: other sources report otherwise.

The target of experiment [8] is T6, A disintegrin and metalloprotease 10 …. The experiment in a line: co-IP; washed human platelets (4 x 10^8 per immunoprecipitation) lysed in 1% digitonin lysis buffer; anti-ADAM10 or isotype-matched control on protein G-Sepharose, 90 min, washed in 0.1% digitonin; non-reducing gels, blots for Tspan14, ADAM10, CD9. The settings on record: remark: other sources report otherwise.

In experiment [9] the target is A disintegrin and metalloprotease 10 (ADAM10), endogenous human (human (endogenous in platelets and HUVECs)) (UniProt O14672). The experiment in a line: co-IP; HUVECs (2.2 x 10^6 per immunoprecipitation) lysed in 1% digitonin lysis buffer; anti-ADAM10 or isotype-matched control on protein G-Sepharose; non-reducing gels, blots for Tspan14, ADAM10, CD9.
For experiment [10] the target is unchanged. The experiment can be described thus: co-IP; washed human platelets (4 x 10^8 per immunoprecipitation) lysed in 1% digitonin lysis buffer; anti-ADAM10 or isotype-matched control on protein G-Sepharose, 90 min, washed in 0.1% digitonin; non-reducing gels, blots for Tspan14, ADAM10, CD9.
In experiment [11] the target is A disintegrin and metalloprotease 10 (ADAM10), endogenous mouse (mouse (endogenous in platelets)) (UniProt O35598). The experiment in a line: co-IP; washed mouse platelets (1.6 x 10^8 per immunoprecipitation) lysed in 1% digitonin lysis buffer; anti-ADAM10 or isotype-matched control on protein G-Sepharose; non-reducing gels, blots for Tspan14, ADAM10, CD9.

Where a chain is given by its changes, count along the chain named. Results are given in words; binding and its absence hold for the method and conditions named. In cells and extracts the contact can be indirect. Some entries that bind do so weakly or less than the wild type. For part of these data: Where a sequence is shown, tags or fusion partners need not be part of it.

On to “ADAM10 17DCS chimera (mouse ADAM10 with the ADAM17 disintegrin, cysteine-rich and stalk region), HA-tagged (from UniProt O35598 20-457; Q9Z0F8 475-671; O35598 674-749)”, for which, in experiment [1], the binding result is reported as “no binding”.

As to “ADAM17 10C chimera (mouse ADAM17 with the ADAM10 cysteine-rich domain), HA-tagged (from UniProt Q9Z0F8 18-563; O35598 553-647; Q9Z0F8 643-827)”, the binding result in experiment [1] is “no binding”.

For the molecule “ADAM17 10D chimera (mouse ADAM17 with the ADAM10 disintegrin domain), HA-tagged (from UniProt Q9Z0F8 18-474; O35598 458-552; Q9Z0F8 564-827)”, the binding result in [1] is listed as “no binding”.

“ADAM17 10DCS chimera (mouse ADAM17 with the ADAM10 disintegrin, cysteine-rich and stalk region), HA-tagged (from UniProt Q9Z0F8 18-474; O35598 458-673; Q9Z0F8 672-827)”: the binding result in [2], in [1], in experiment [3], in experiment [4], in [5] and in [6] was “binds” each time.

For the molecule “ADAM17 10S chimera (mouse ADAM17 with the ADAM10 stalk region), HA-tagged (from UniProt Q9Z0F8 18-642; O35598 648-673; Q9Z0F8 672-827)”, in [1], the binding result is given as “no binding”.

B1: CD9, endogenous human, P21926 1-228 (protein)
chain: MPVKGGTKCIKYLLFGFNFIFWLAGIAVLAIGLWLRFDSQTKSIFEQETNNNNSSFYTGVYILIGAGALMMLVGFLGCCGAVQESQCMLGLFFGFLLVIFAIEIAAAIWGYSHKDEVIKEVQEFYKDTYNKLKTKDEPQRETLKAIHYALNCCGLAGGVEQFISDICPKKDVLETFTVKSCPDAIKEVFDNKFHIIGAVGIGIAVVMIFGMIFSMILCCAIRRNREMV
For the molecule B1, the binding result in experiment [7] and in experiment [8] was “no binding” in each case.

B2: Tspan14, endogenous human (protein, UniProt Q8NG11 1-270)
chain: T1 sequence with E10K, V25I, L56M, K92N, A97T, F215S, G227S
On to B2, for which the binding entry in experiment [9] and in [10] was “binds” in each case.

B3: Tspan14, endogenous mouse (protein, UniProt Q8QZY6 1-270)
chain: T1 sequence
Regarding B3, the binding result in experiment [11] is “binds”.
